From a collection of fitness landscapes (doi:10.1016/j.celrep.2020.107928) come the findings set out here.

Over roughly 81,000 sequences, “one-hybrid fitness for binding parS DNA” has its median near -0.17; the highest 2% begin near 0.51. This is one part of the list. Some results are limits rather than exact numbers.

B1: Caulobacter ParB omega fusion; a variant is named by its letters at X, in order, B8GW30 (parent)
chain: MESVVVGEPGMSEGRRGLGRGLSALLGEVDAAPAQAPGEQLGGSREAPIEILQRNPDQPRRTFREEDLEDLSNSIREKGVLQPILVRPSPDTAGEYQIVAGERAWRAAQRAGLKTVPIMVRELDDLAVLEIGIIENVQRADLNVLEEALSYKVLMEKFERTQENIAQTIGKSXSHVANXMRLLXLPDEVQSYLVSGELTAXHARAIAAAADPVALAKQIIEGGLSVRETEALARKAPNLSAGKSKGGRPPRVKDTDTQALESDLSSVLGLDVSIDHRGSTGTLTITYATLEQLDDLCNRLTRGI

In this test the parent is B1. In words: one-hybrid fitness for binding parS DNA (scaled: cognate 1, non-cognate 0); higher = stronger binding. To be noted: with parS DNA site. The gist of the method: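 Pre- and post-selection plasmids were Illumina-sequenced, three replicate libraries were pooled, and any variant with under 10 reads was removed. The libraries were Caulobacter ParB with four specificity codons randomised, selected in E. coli USO through a HIS3 reporter whose site is 19 bp from the promoter. Cells grew 48 hours at 37°C on M9 without histidine, with 0.1 mM IPTG and 5 mM 3-AT. Fitness is the log change in variant-to-wild-type read ratio, rescaled against cognate and non-cognate.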
Regarding QQAV, the “one-hybrid fitness for binding parS DNA” value was at most 0.2.
Next, HMQF: at most 0.2.
The figure for EGST is at most 0.2.
The figure for RCAM is 0.351; for QIPF it is at most 0.2.
Regarding LKPL, the “one-hybrid fitness for binding parS DNA” value is at most 0.2.
Next, LFLW: at most 0.2; SNCM: at most 0.2; NKNC: at most 0.2.
Next, CCTT: at most 0.2; VYLT: at most 0.2; SVML: at most 0.2.
The figure for LMQK is at most 0.2; for QAPE it is at most 0.2.
Consider AATI, for which the “one-hybrid fitness for binding parS DNA” value was at most 0.2.
Next, IAIL: at most 0.2; TCVD: at most 0.2.
In the case of VLHM, the “one-hybrid fitness for binding parS DNA” value is at most 0.2.
The figure for CCST is at most 0.2; for LVST it is at most 0.2.
The figure for MKNG is at most 0.2; for MGKV it is at most 0.2.
In the case of ATMC, the “one-hybrid fitness for binding parS DNA” value is at most 0.2.
The figure for QLML is at most 0.2.
The figure for FQPT is at most 0.2; for SHPE it is at most 0.2; for DCDG it is at most 0.2.
Next, IFMT: at most 0.2; QFRA: at most 0.2; QVCT: at most 0.2.
With QESD, the “one-hybrid fitness for binding parS DNA” value is at most 0.2.
Next, YIPI: at most 0.2; PQYM: at most 0.2; HCPG: at most 0.2.
The figure for FHLK is at most 0.2; for YIGG it is at most 0.2.
The figure for AQVR is at most 0.2.
VIIA: the “one-hybrid fitness for binding parS DNA” value was at most 0.2.
For the variant WMQS, the “one-hybrid fitness for binding parS DNA” value was at most 0.2.
YMES: the “one-hybrid fitness for binding parS DNA” value was at most 0.2.
As to SDCG, the “one-hybrid fitness for binding parS DNA” value was at most 0.2.
The figure for AHDV is at most 0.2; for GSHC it is at most 0.2; for QIRN it is at most 0.2.
The figure for LDHM is at most 0.2.
The figure for HDMF is at most 0.2.
For TIFF, the “one-hybrid fitness for binding parS DNA” value was at most 0.2.
Next, CQRL: at most 0.2; AQLS: at most 0.2.
The figure for APKK is at most 0.2; for GSAR it is at most 0.2; for ITKH it is at most 0.2.
The figure for ILYI is at most 0.2.
For QVYL, the “one-hybrid fitness for binding parS DNA” value is at most 0.2.
The figure for QRNL is at most 0.2.
With CTTV, the “one-hybrid fitness for binding parS DNA” value was at most 0.2.
Next, DLTG: at most 0.2.
Next, PYFL: at most 0.2.
Next, VTKG: at most 0.2.
As for PSDL, the “one-hybrid fitness for binding parS DNA” value is at most 0.2.
Next, QTYH: at most 0.2.
On to HSLV, for which the “one-hybrid fitness for binding parS DNA” value was at most 0.2.
Turning to LKLE, the “one-hybrid fitness for binding parS DNA” value was at most 0.2.
Next, PIWR: at most 0.2.
Next, EVRR: at most 0.2; MSPF: at most 0.2.
On to QFDW, for which the “one-hybrid fitness for binding parS DNA” value was at most 0.2.
The figure for APYL is at most 0.2; for SWYC it is at most 0.2.
Consider RTIR, for which the “one-hybrid fitness for binding parS DNA” value was at most 0.2.
The figure for GYQR is at most 0.2; for YQLI it is at most 0.2.
The figure for RYKC is 0.752; for GEPV it is at most 0.2.
Turning to DEDW, the “one-hybrid fitness for binding parS DNA” value was at most 0.2.
Take SMVD: the “one-hybrid fitness for binding parS DNA” value is at most 0.2.
The figure for ETPT is at most 0.2; for FGGR it is at most 0.2.
With KKCR, the “one-hybrid fitness for binding parS DNA” value is at most 0.2.
Next, CWNS: at most 0.2.
Turning to WLPY, the “one-hybrid fitness for binding parS DNA” value is at most 0.2.
Next, FHDT: at most 0.2; GLTE: at most 0.2; QMAM: at most 0.2.
Next, VARC: at most 0.2; QGKE: at most 0.2; SLHY: at most 0.2.
For GCKR, the “one-hybrid fitness for binding parS DNA” value is at most 0.2.
The figure for IGLC is at most 0.2; for YNLR it is at most 0.2.
The figure for TIPE is at most 0.2.
The figure for SNVN is at most 0.2.
On to KVLV, for which the “one-hybrid fitness for binding parS DNA” value was at most 0.2.
For the variant MQDT, the “one-hybrid fitness for binding parS DNA” value was at most 0.2.
Next, LESR: at most 0.2; RKEG: 0.949.
The figure for TVSS is at most 0.2.
The figure for QSNA is at most 0.2; for RRTE it is at most 0.2; for CSFI it is at most 0.2.
Take GQEG: the “one-hybrid fitness for binding parS DNA” value was at most 0.2.
As for RDGV, the “one-hybrid fitness for binding parS DNA” value was at most 0.2.
Turning to EHPE, the “one-hybrid fitness for binding parS DNA” value is at most 0.2.
The figure for GLNE is at most 0.2; for FLPG it is at most 0.2; for NAFC it is at most 0.2.
In the case of AATR, the “one-hybrid fitness for binding parS DNA” value is at most 0.2.
As to LEPS, the “one-hybrid fitness for binding parS DNA” value is at most 0.2.
In the case of TPTT, the “one-hybrid fitness for binding parS DNA” value is at most 0.2.
The figure for WMVS is at most 0.2; for TYNK it is at most 0.2; for QCQM it is at most 0.2.
With QLVH, the “one-hybrid fitness for binding parS DNA” value is at most 0.2.
Next, FQLC: at most 0.2; EHVT: 0.202; DAPQ: at most 0.2.
Next, EWNR: at most 0.2; IILG: at most 0.2; YSYG: at most 0.2.
As for ARRY, the “one-hybrid fitness for binding parS DNA” value was at most 0.2.
The figure for PYVV is at most 0.2; for LCIT it is at most 0.2; for KCVS it is at most 0.2.
Next, RDTI: at most 0.2; CSLR: at most 0.2.
The figure for SHNR is at most 0.2.
On to RYQI, for which the “one-hybrid fitness for binding parS DNA” value is at most 0.2.
For LKKR, the “one-hybrid fitness for binding parS DNA” value is at most 0.2.
The figure for PPLN is at most 0.2; for GLSY it is at most 0.2; for RKHE it is at most 0.2.
The figure for VYNT is at most 0.2; for CPFV it is at most 0.2.
Next, MVEV: at most 0.2; TCYM: at most 0.2; LAQE: at most 0.2.
Turning to NCRM, the “one-hybrid fitness for binding parS DNA” value was at most 0.2.
In the case of QMCV, the “one-hybrid fitness for binding parS DNA” value is at most 0.2.
Next, EYTR: at most 0.2; TMFD: at most 0.2; LCWS: at most 0.2.
The figure for KHDR is at most 0.2.
For VVVC, the “one-hybrid fitness for binding parS DNA” value is at most 0.2.
Next, SSKW: at most 0.2; EGHF: at most 0.2; HMRY: at most 0.2.
With KAHT, the “one-hybrid fitness for binding parS DNA” value was at most 0.2.
Regarding QSAP, the “one-hybrid fitness for binding parS DNA” value was at most 0.2.
As for TPYF, the “one-hybrid fitness for binding parS DNA” value is at most 0.2.
In the case of HTPP, the “one-hybrid fitness for binding parS DNA” value was at most 0.2.
In the case of WLER, the “one-hybrid fitness for binding parS DNA” value was at most 0.2.
For QSAD, the “one-hybrid fitness for binding parS DNA” value is at most 0.2.
The figure for PGDG is at most 0.2; for DLPM it is at most 0.2.
Next, RLCP: at most 0.2.
The figure for WAMT is at most 0.2; for KMDT it is at most 0.2.
With AHSD, the “one-hybrid fitness for binding parS DNA” value was at most 0.2.
The figure for MELS is at most 0.2; for THLV it is at most 0.2; for WSLV it is at most 0.2.
In the case of DVND, the “one-hybrid fitness for binding parS DNA” value is at most 0.2.
Next, QCWA: at most 0.2; KSCR: at most 0.2; RFCV: at most 0.2.
Next, SYKR: at most 0.2.
Next, SNHC: at most 0.2; ASHY: at most 0.2; NTFS: at most 0.2.
Turning to NRGM, the “one-hybrid fitness for binding parS DNA” value is at most 0.2.
The figure for QANS is at most 0.2; for YLTI it is at most 0.2; for QCPQ it is at most 0.2.
With KRVC, the “one-hybrid fitness for binding parS DNA” value is at most 0.2.
Next, IFQG: at most 0.2; LGTE: at most 0.2.
The figure for MRAF is at most 0.2; for GDVA it is at most 0.2.
The figure for TGER is at most 0.2; for DLAT it is at most 0.2; for PNMW it is at most 0.2.
For the variant KVPS, the “one-hybrid fitness for binding parS DNA” value was at most 0.2.
In the case of CMRD, the “one-hybrid fitness for binding parS DNA” value is at most 0.2.
The figure for TPEA is at most 0.2; for AKWS it is at most 0.2; for QRGG it is at most 0.2.
The figure for KFMC is at most 0.2; for CMNV it is at most 0.2.
The figure for YSDS is at most 0.2; for LHTK it is at most 0.2.
In the case of YGKL, the “one-hybrid fitness for binding parS DNA” value was at most 0.2.
Next, ICLR: at most 0.2; RPDP: at most 0.2.
Take WSAQ: the “one-hybrid fitness for binding parS DNA” value is at most 0.2.
For the variant WAIS, the “one-hybrid fitness for binding parS DNA” value is at most 0.2.
